The BET-seq Pho4 binding data (Le et al. 2018)
The list shows a part of the results. Values were computed here from the reads of four pooled replicates and scatter widely.

Biological target: T1, Pho4 (S. cerevisiae) (UniProt P07270)
T1 sequence: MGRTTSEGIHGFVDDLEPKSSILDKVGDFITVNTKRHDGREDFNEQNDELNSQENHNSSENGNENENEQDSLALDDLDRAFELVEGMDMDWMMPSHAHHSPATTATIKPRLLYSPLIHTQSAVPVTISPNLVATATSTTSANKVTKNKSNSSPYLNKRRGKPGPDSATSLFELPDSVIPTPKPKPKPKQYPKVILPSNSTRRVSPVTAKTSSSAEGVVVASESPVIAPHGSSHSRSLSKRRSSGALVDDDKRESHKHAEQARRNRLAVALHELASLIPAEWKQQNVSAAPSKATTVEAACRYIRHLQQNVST
Assay: relative binding free energy (BET-seq); higher = weaker binding
Conditions: reference: library average

Sequence	relative binding free energy [kcal/mol]
ATCAGCACGTGGTGTG	-0.12
TGGAACACGTGTTGTG	-0.07
TTCTCCACGTGTATGG	0.17
GTGGTCACGTGAGAAA	0.51
TATCGCACGTGCGGGG	-0.28
TTGCTCACGTGGGTAT	0.13
CGGCGCACGTGGATGA	0.11
TGATTCACGTGTCGGG	0.39
TCGGCCACGTGGGTTG	-0.25
TATATCACGTGAGTGG	0.38
TTACTCACGTGGTGAT	0.12
AGTGCCACGTGGGTAA	-0.07
TTTGGCACGTGGGTCT	-0.09
AGGATCACGTGGCTGT	0.06
TTTTGCACGTGGTGTC	-0.05
GTGGACACGTGGGAGA	-0.11
AGACTCACGTGAGTTG	0.44
GAGTTCACGTGGTTTC	0.24
GTCGGCACGTGGTAGT	0.01
GTAATCACGTGGCTTG	0.14
ACGGGCACGTGGAGGA	-0.23
CAATTCACGTGTTAGG	0.18
ATGGTCACGTGTATGG	0.13
GGGGCCACGTGTTGTC	0
AATATCACGTGAGATG	0.37
GGAATCACGTGTTGGA	0.18

Sequence	relative binding free energy [kcal/mol]
CTCAGCACGTGTGTGT	-0.04
CTTAACACGTGAGGGT	0.06
TAGGTCACGTGCGTGT	0.09
GGCTGCACGTGGCGGT	-0.09
GTTTGCACGTGGTGGG	-0.02
GGTGCCACGTGGGTCA	-0.19
GTGTGCACGTGAAGTA	0.21
TGGATCACGTGAGTGG	0.32
TTTAACACGTGGTTTC	-0.06
GGGAACACGTGTGAGA	0.24
TGGGCCACGTGTTCTT	-0.02
GTGATCACGTGGATGT	0.09
TCAGGCACGTGAGAAT	0.31
TGAGTCACGTGAGATA	0.34
AGAGACACGTGTGGCG	0.04
GGAGGCACGTGTAGAC	-0.01
AATTTCACGTGCGTAG	0.29
GTCGTCACGTGTGGGG	0.15
GCACGCACGTGGTGGT	-0.16
GGTGGCACGTGAGTGT	0.29
GTGGACACGTGCGGTG	-0.04
TTTTACACGTGGCGGC	0.07
GTGGTCACGTGATGGG	0.3
CCGGTCACGTGTGGGC	0.25
CGTGCCACGTGGGGAG	-0.19
TTTTACACGTGGGCGT	-0.1

Sequence	relative binding free energy [kcal/mol]
TGTTGCACGTGATTAG	0.08
GTTGTCACGTGGGGTT	0
ACTTTCACGTGGGTCG	0.11
TCTGGCACGTGGGTAA	-0.17
CGGCGCACGTGTGGTG	0
GTGTGCACGTGTTATT	-0.01
ATTGTCACGTGGTACG	0.06
GTTTACACGTGCCGTG	0.14
GGATCCACGTGGTGGT	0.06
AGGATCACGTGCGTGG	0.01
AATGGCACGTGGTTAT	-0.03
GTGGGCACGTGGAATA	0.08
GTGAGCACGTGTTTCT	0.01
TGTCTCACGTGGGTGT	0.09
TTATTCACGTGCGATG	0.25
GGTTGCACGTGGTCAG	-0.01
ATTGGCACGTGCGTCA	-0.19
TATGGCACGTGTGTAC	-0.19
AAGGTCACGTGGTGTT	0.09
AGATTCACGTGAATGT	0.46
CGGTTCACGTGGAGCT	0.26
TGGGGCACGTGTGATT	0.08
TTGAACACGTGAACGT	0.42
TTGGACACGTGATAGA	0.11
TTAGCCACGTGGGTGT	-0.15
TCCGGCACGTGGGGGC	-0.27

Sequence	relative binding free energy [kcal/mol]
TGAGTCACGTGGAGGG	0.19
TAATTCACGTGGTCTA	0.3
TGTGGCACGTGTCTGC	-0.07
AATTTCACGTGTGAAA	0.24
TCATTCACGTGAAGTG	0.45
AAGTGCACGTGTGCAT	0.07
ATCTGCACGTGGGAGG	-0.1
TCGTTCACGTGTGAGG	0.39
TGCTTCACGTGTGTTT	0.3
TTTGTCACGTGCCTTT	-0.11
TTTGACACGTGTAGAA	0
GTAGTCACGTGGGTAG	0.05
TGTAGCACGTGGGCGT	-0.23
ATTGTCACGTGCTTTG	0.12
CGGGTCACGTGGAGAT	0.15
TTTGTCACGTGCATTA	0.14
GTGTGCACGTGGAAAT	0.12
TTGCACACGTGTGCGT	-0.08
ATTGTCACGTGGACAG	-0.09
GTAATCACGTGGCTGG	0.24
TTGCACACGTGGGTAA	-0.11
GGCTGCACGTGTGCTG	-0.05
CGTCGCACGTGTGGGG	0.1
AGATCCACGTGTAGTT	0.19
CTGCGCACGTGGGGTT	-0.33
ATTCGCACGTGTTTTT	-0.11

Sequence	relative binding free energy [kcal/mol]
GTGTTCACGTGCATCG	0.31
CATGACACGTGCGGGG	-0.08
TGTGTCACGTGGTGTT	0.02
TGATACACGTGGAAAT	0.28
GGGGTCACGTGCCGTT	0.09
ACGTCCACGTGAGGGT	0.26
CTGCTCACGTGTTTGG	0.2
GAGCCCACGTGGGTGG	-0.18
TGTTGCACGTGACATT	-0.03
GTTGCCACGTGTTTTG	-0.11
GGGGTCACGTGCTCGG	0.05
ATATGCACGTGAGTGA	-0.03
GGTTGCACGTGTTTGG	0.14
TGTTTCACGTGGATAA	0.25
CGTTTCACGTGAGGGG	0.39
GTATTCACGTGGTGGT	0.2
CGTTGCACGTGTTGTC	-0.01
ATGTGCACGTGTTGAC	-0.01
TAGTCCACGTGTTGTA	0
AGAATCACGTGTGTGG	0.2
TGAAACACGTGAAGGT	0.15
AGTGCCACGTGGGATT	-0.22
GTCTTCACGTGTGGAG	0.28
CGTATCACGTGTAAGT	0.35
AGTTACACGTGTCGTA	0.03
TGTATCACGTGATGTA	0.03

Sequence	relative binding free energy [kcal/mol]
TTGATCACGTGTTTTT	0.22
CGAGGCACGTGGTATT	-0.19
GGAATCACGTGTTCTG	0.22
ATAAGCACGTGGATAG	-0.13
TTTCGCACGTGCGATT	0.02
GAACTCACGTGAGGGT	0.4
GGCACCACGTGGGGGT	-0.27
ATTTTCACGTGGAAGG	0.29
TTGTACACGTGAGTTG	0.19
AATTTCACGTGATGGA	0.33
AATTTCACGTGTTGAG	0.21
TGTGACACGTGTACTG	0.04
GGCGTCACGTGATGTC	0.41
ATTGTCACGTGCTAGT	-0.02
AGTTGCACGTGAAGAT	0.23
AGCTGCACGTGCGGGG	-0.06
GGGATCACGTGTACGG	0.07
TGAATCACGTGGGTTT	0.06
ATAGACACGTGCGAGG	0.02
ATCAGCACGTGTAGTT	-0.03
TGGGGCACGTGTGTAT	0.02
GTAGTCACGTGGTTGT	0.17
AAAGTCACGTGTGGCA	0.24
GTATTCACGTGTTGAG	0.33
TACGGCACGTGATTAG	0.01
CTGGTCACGTGCGTAT	0.01

Sequence	relative binding free energy [kcal/mol]
AGGTACACGTGGGCAG	-0.13
GGAGTCACGTGAGTCT	0.3
AGTTACACGTGGGTGT	0
CGGTTCACGTGGCAGA	0.42
TAGTTCACGTGCGAGT	0.24
CGAATCACGTGTAGGT	0.13
CGTGTCACGTGTTGCT	0.03
TAGGCCACGTGGTAAT	-0.12
GAATACACGTGAGGGT	0.17
ATGGGCACGTGGTTGT	-0.11
CTGTTCACGTGGGGGA	0.11
AGACACACGTGTGTTG	0.2
TTGGGCACGTGGGCGA	-0.3
GGGTGCACGTGAGGCC	0.17
GGGGGCACGTGGAGCG	-0.07
GGGACCACGTGTAGGG	0.06
GTCAGCACGTGTTTTT	0.13
GAGTACACGTGTTTTG	0.06
CAAGTCACGTGGGAAT	0.14
CTGTCCACGTGTTTGT	0.11
TACTGCACGTGTGAAG	0.13
GGTGTCACGTGGTCCG	-0.02
TTTGCCACGTGATAGT	0.05
TTTGTCACGTGCAAGG	0.18
GGTCCCACGTGGTGGG	-0.2
TCTAACACGTGATGGG	0.11

Sequence	relative binding free energy [kcal/mol]
GGCGTCACGTGGCGGG	0.14
TGTAACACGTGGGGCG	-0.05
TTGATCACGTGTAGGC	0.21
TGGTGCACGTGACGGT	0.13
GTTATCACGTGGAATG	0.16
GAGCTCACGTGTTGTA	0.25
CGTGTCACGTGGCGAT	-0.01
GGTGCCACGTGTTGAT	-0.12
TGGTTCACGTGGTGCT	0.23
ATTGTCACGTGGATTT	0.11
TTCACCACGTGTGTGG	0.05
TTCGGCACGTGAGGGC	0.21
GAATGCACGTGGGTTA	0.03
GCGGACACGTGGAGTG	-0.04
GGTATCACGTGTATTG	0.1
GTATCCACGTGGGAGG	-0.08
TGCAGCACGTGGTTTG	0.03
AATTGCACGTGCGAGT	0.06
TTCAGCACGTGATAGT	0.05
AATGTCACGTGGTAAG	0.04
TAAGGCACGTGCTAGT	-0.06
GGTTACACGTGTGAAG	0.27
ATCGGCACGTGGCGTG	-0.24
ATATTCACGTGTATGA	0.17
GCAAGCACGTGGGAGG	-0.16
GGGCTCACGTGATAGT	0.61

Sequence	relative binding free energy [kcal/mol]
CATTGCACGTGTTCGG	-0.04
TCTAGCACGTGGGGAG	-0.07
GTACTCACGTGGGATT	0.34
TTTAACACGTGAGTGC	0.28
GATTGCACGTGGGACT	-0.02
TGGGACACGTGGGCAG	-0.11
GGTACCACGTGGGGCT	-0.16
AGGTTCACGTGGTCTA	0.14
TGGGTCACGTGTCGGA	0.27
GGGCGCACGTGATGTT	0.17
TAGGACACGTGGGTAA	-0.27
GTCGGCACGTGTTGTT	-0.16
TGTGCCACGTGGGTAA	-0.15
ACGTCCACGTGGGGTG	-0.22
TTGCGCACGTGTGGTC	-0.15
TCGAACACGTGTTTGT	0.07
GTGCACACGTGAGTTG	0.28
GGACGCACGTGATGGG	0.07
AAGTGCACGTGCAGTA	0.08
ATTGTCACGTGTTAAG	0.1
TATAGCACGTGGTAAA	-0.11
GGGCTCACGTGTTAGG	0.35
